Measured values: PubChem BioAssay AID485344 (National Center for Advancing Translational Sciences (NCATS), 2010)
The whole screen tested about 340,000 compounds, of which about 6,900 (2%) were called active. Cut-off read from the data, not from the text of the source: active = inhibition above about 30%; inactive = below that, where a call was filed. This is a selection; strong and weak results do not stand in their true shares. The source gives no active or inactive call for entries shown without one.

Each compound was assayed against D(2) dopamine receptor (Homo sapiens) (UniProt P14416) (assay: HTS Assay for Allosteric Antagonists of the Human D2 Dopamine Receptor: Primary Screen for Antagonists). Details: HEK293 TREx D2 cells, calcium flux, dopamine EC80; at 10 µM; stronger effect = higher value.
Chain of UniProt P14416 (P14416 whole entry, looked up): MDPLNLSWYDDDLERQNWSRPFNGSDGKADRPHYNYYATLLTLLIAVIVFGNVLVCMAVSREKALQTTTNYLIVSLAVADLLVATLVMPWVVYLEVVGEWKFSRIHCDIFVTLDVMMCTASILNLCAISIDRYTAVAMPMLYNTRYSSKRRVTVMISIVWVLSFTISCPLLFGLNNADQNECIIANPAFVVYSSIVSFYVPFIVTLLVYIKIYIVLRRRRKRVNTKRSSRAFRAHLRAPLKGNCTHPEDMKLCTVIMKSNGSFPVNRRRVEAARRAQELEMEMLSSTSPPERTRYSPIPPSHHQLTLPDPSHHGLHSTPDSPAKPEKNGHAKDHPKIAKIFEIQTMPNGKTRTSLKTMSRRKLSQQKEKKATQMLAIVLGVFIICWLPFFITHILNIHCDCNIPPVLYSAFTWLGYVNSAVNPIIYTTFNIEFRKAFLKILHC
Summary of the method: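 In this primary screen, negative modulation is detected by tracking calcium flux after an EC80 dopamine challenge in inducible HEK293 T-REx D2 cells preexposed to test compound for 180 s.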
Note: 0% is about no effect.

| SMILES | inhibition |
| --- | --- |
| Cc1ccc(C(=O)C2CCN(CC(=O)Nc3ccc(N(C)C)cc3)CC2)cc1 | active: 33.4% |
| CC(C)CC(=O)n1nc(-c2ccco2)nc1NCc1ccc(Cl)cc1 | -2.08% |
| Cc1ccc2onc(CNC(=O)N3CCN(c4cc(Cl)ccc4C)CC3)c2c1 | -3.09% |
| COc1ccccc1CNC(=O)c1ccc2c(c1)nc(C)n2-c1cccc(C)c1 | 17% |
| Cc1ccc(CCNC(=O)c2sc3nc4n(c(=O)c3c2C)CCCC4)cc1 | -7.04% |
| COc1ccc(C(C)=O)cc1CSc1nc(NCc2ccccc2)c2ccccc2n1 | -16.3% |
| Cc1ccc(C)c(-c2nnc(NC(=O)c3ccco3)o2)c1 | active: 40.5% |
| COc1ccc(NC(=O)C(C)N2Cc3ccccc3C2=O)cc1OC (configuration not stated) | 20.1% |
| CCOC(=O)c1cc(S(=O)(=O)N2CCN(c3ccccc3OC)CC2)[nH]n1 | 8.12% |
| COc1ccc(NC(=O)CSCc2cc(=O)c3cc(Cl)ccc3[nH]2)cc1 | -2.46% |
| Cc1ccc(N2CC(NC(=O)C3CCCCC3)CC2=O)cc1 (configuration not stated) | 24.3% |
| CCc1ccc(C(=O)c2cn(CC(=O)Nc3ccc(F)cc3)c3ccc(F)cc3c2=O)cc1 | 16.1% |
| CCn1c(CNC(=O)c2ccc(OC)cc2)nnc1SCC(=O)Nc1ccc(F)cc1 | -12.9% |
| CCOc1ccc(C2CC(=O)Nc3c2c(=O)[nH]c2ncnn32)cc1 (configuration not stated) | 4.53% |
| Cc1cccc(C(=O)Nc2cc(-c3ccccc3F)nn2-c2ccccc2)c1 | -5.05% |
| COc1cc(NS(=O)(=O)c2cc3[nH]c(=O)[nH]c3cc2C)cc(OC)c1OC | 5.66% |
| COc1ccc(-c2cc(C(=O)Nc3c(C)nn(Cc4ccccc4C)c3C)no2)cc1 | -12.8% |
| Cc1cccc(CN2C(=O)c3ccccc3S(=O)(=O)c3ccc(C(=O)OCC4CCCO4)cc32)c1 (configuration not stated) | 0.405% |
| CCc1ccc(CNC(=O)C2COc3ccccc3C2)cc1 (configuration not stated) | 2.14% |
| COc1cc(C(=O)NCc2nc(-c3ccc(Cl)cc3)no2)cc(OC)c1OC | 6.15% |
| COC(=O)CCNC(=O)N1CCN(c2nnc(C)c3c(C)n(-c4ccccc4)nc23)CC1 | -3.16% |
| O=C(Cn1c(=O)n(Cc2ccc(F)cc2)c(=O)c2sc3ccccc3c21)Nc1ccc(F)cc1F | -18.1% |
| COc1cccc(CNC(=O)Cn2cccc2C(=O)c2ccccc2)c1 | -3.67% |
| O=c1c2ccsc2ncn1Cc1ccc(Cl)cc1 | active: 38% |
| COc1cccc(-c2nc(CS(=O)(=O)CC(=O)Nc3ccc(C)c(Cl)c3)c(C)o2)c1 | -7.37% |

| SMILES | inhibition |
| --- | --- |
| Cc1cccc(NC(=O)c2cc3c([nH]c2=O)CC(c2ccccc2)CC3=O)c1 (configuration not stated) | -22.8% |
| CCN1CCc2c(sc(-n3cccc3)c2C(CCC(C)C)NC(=O)NCCC(=O)OC)C1 (configuration not stated) | -7.57% |
| CCc1cccc(C)c1NC(=O)C(NS(=O)(=O)c1ccc2c(c1)CCC(=O)N2)c1ccccc1 (configuration not stated) | -11.8% |
| Cc1ccc(C)c(N2CCN(C(c3ccccc3)c3nnc(-c4ccccc4)o3)CC2)c1 (configuration not stated) | 1.23% |
| CCCn1c2ccccc2c2cnn(CC(=O)NCCCOC(C)C)c(=O)c21 | 10% |
| Cc1ccc(NS(=O)(=O)c2c(C)nc3sc(C)c(C)n3c2=O)cc1F | -3.84% |
| CC(C)COc1ccc(C(=O)N(Cc2cccc(F)c2)C2CCS(=O)(=O)C2)cc1 (configuration not stated) | -13.7% |
| CCOc1ccc(S(=O)(=O)NCc2cccn2Cc2cccc(C)c2)cc1 | 1.66% |
| CCOC(=O)c1cnc2ccc(OCC)cc2c1NCCc1ccc(OC)c(OC)c1 | 19% |
| Cc1cccc(N2CCN(CC(O)COCc3cccs3)CC2)c1C (configuration not stated) | active: 70.5% |
| CCCn1c(=N)c(C(=O)NC2CCCCC2)cc2c(=O)n3cc(C)ccc3nc21 | 4.08% |
| Cc1ccc([N+](=O)[O-])c(OCCCN2CCCCCC2)c1 | active: 70.9% |
| COc1cc(F)c(C2=CC(=O)C[C@H](c3ccc(Cl)cc3)C2)cc1F | active: 34.8% |
| Cc1ccc2c(C)c(C(=O)N(Cc3ccc(Cl)cc3)C3CCS(=O)(=O)C3)oc2c1 (configuration not stated) | -2.65% |
| COc1cc2c(cc1OC)C(COc1ccc3c(C)cc(=O)oc3c1)N(C(=O)c1ccc(Cl)cc1)CC2 (configuration not stated) | -7.83% |
| O=C1CN(C(=O)c2ccccc2C(F)(F)F)C(c2ccccc2)c2cc(F)ccc2N1 (configuration not stated) | -12.1% |
| CCCNc1c(NC(=O)c2ccc(OCCC)cc2)c(=O)oc2ccccc12 | -4.98% |
| O=C1[C@@H]2CSC(c3ccc(C(F)(F)F)cc3)N2C(=O)N1c1ccccc1 (some centres not stated) | 8.93% |
| O=C(CSCc1ccccc1Cl)NN=C1CCCCCC1 | active: 38.4% |
| CCN(CC)C(=O)Cn1c(=O)n(Cc2ccc(C(=O)NCc3ccccc3Cl)cc2)c(=O)c2ccccc21 | 11.5% |
| O=C(CSc1nccn1-c1ccc(F)cc1)Nc1ccc(OC(F)(F)F)cc1 | -4.35% |
| COc1cc(C2C(=O)N(C3CCCCC3)CC(=O)N2Cc2ccc(C)cc2)ccc1OC(C)C (configuration not stated) | 24.2% |
| CCOC(=O)c1c(-c2ccc(Br)cc2)csc1NC(=O)c1ccccc1F | 8.19% |
| COc1cc(NC(=O)N2CCC(CN3CCCC3)CC2)cc(OC)c1OC | -2.82% |
| CN(C)c1ccc(C(CNS(=O)(=O)c2ccccc2)N2CCc3ccccc32)cc1 (configuration not stated) | 9.09% |

| SMILES | inhibition |
| --- | --- |
| COc1cc(C(=O)NCC(c2cccnc2)N2CCc3ccccc32)cc(OC)c1OC (configuration not stated) | -26% |
| Cc1ccc(S(=O)(=O)N(C)C)cc1NC(=O)CSc1ccc2c(c1)OCCO2 | active: 36.3% |
| Cc1ccccc1Cn1c(=O)n(Cc2ccc(Cl)cc2)c(=O)c2cccnc21 | -5% |
| COc1ccc(OC)c(NC(=O)CSC2=Nc3ccccc3C3=NC(CC(=O)NCc4ccc5c(c4)OCO5)C(=O)N23)c1 (configuration not stated) | -26.7% |
| COc1cc(Cl)c(C)cc1NC(=O)c1sc2nc3n(c(=O)c2c1C)CCCCC3 | 13.8% |
| CCOC(=O)c1c(NC(=O)c2nc(SC(C)C)ncc2Cl)sc2c1CCCC2 | 20.8% |
| Cc1nc(NCc2ccco2)[nH]c(=O)c1CCC(C)C | active: 30.3% |
| Cn1c(SCc2ccc(C(F)(F)F)cc2)nc2c([nH]c3ccccc32)c1=O | -3.29% |
| O=c1cc(N2CCN(c3ccc(F)cc3)CC2)[nH]c(=O)n1-c1ccc(Br)cc1 | 7.52% |
| c1ccc2c(c1)CCN(CCCNc1nc3ccccc3n3cnnc13)C2 | active: 69.9% |
| CCCCN1C(=O)CN(C2CCCCCC2)C(=O)C1c1ccc(OCCC)c(OC)c1 (configuration not stated) | 15.2% |
| CCOc1ccc(CCNC(=O)c2nnc(Cc3cc(OC)c(OC)c(OC)c3)o2)cc1OCC | -27.1% |
| CCOC(=O)C1CCN(C(=O)Cn2nc(C)n3c(cc4cc(F)ccc43)c2=O)CC1 | 0.161% |
| COc1ccc(N2CCN(S(=O)(=O)CCNC(=O)Cc3ccc(Cl)cc3)CC2)cc1 | 27.1% |
| O=C(NCCN1CCOCC1)C12CC3CC(C1)CC(c1ccccc1)(C3)C2 | active: 38.4% |
| CCn1cc(S(=O)(=O)c2cc(C)cc(C)c2)c(=O)c2cc(F)c(N3CCCC3)cc21 | 11.6% |
| COc1ccc(-c2nc3c4ccccc4n(CC(=O)Nc4cc(F)ccc4F)c(=O)n3n2)cc1 | 1.03% |
| CCOc1ccc(OC(=O)c2cn(-c3ccc(C)cc3)c(=O)c3ccccc23)cc1 | -0.413% |
| COc1cc(-c2ccno2)ccc1S(=O)(=O)N1CCN(c2ccc(C(C)=O)cc2)CC1 | 4.5% |
| COc1ccc(-c2cc(C(F)(F)F)n3nc(C(=O)Nc4cc(Cl)cc(Cl)c4)cc3n2)cc1 | 0.556% |
| CCCCC(=O)Nc1ccccc1C(=O)OCc1cc(=O)n2nc(C3CCCCC3)sc2n1 | 1.95% |
| Cc1c(Cl)ccc2c(C(=O)O)cc(-c3ccccc3)nc12 | active: 52% |
| CCCOc1cccc(C(=O)Nc2cccc(NC(=O)c3ccc(C(C)(C)C)cc3)c2)c1 | 6.04% |
| COc1ccc2[nH]c(C)c(CCNS(=O)(=O)c3cc(F)ccc3OC)c2c1 | 10.4% |
| CN(C)c1ccc(C(CNC(=O)c2ccc(C(C)(C)C)cc2)N2CCOCC2)cc1 (configuration not stated) | -14.9% |

| SMILES | inhibition |
| --- | --- |
| COc1ccc(NC(=O)CSc2[nH]c(=O)cc(C)c2C#N)cc1OC | active: 34.3% |
| COc1ccc(CCNC(=O)C2(c3cccs3)CCOCC2)cc1OC | -24.3% |
| COC(=O)c1cccc(-n2c(CCC(=O)O)ccc2-c2ccc(OC)cc2)c1 | 8.6% |
| CCOC(=O)c1cc(-c2ccccc2)n(CCCC(=O)Nc2ccc(C(C)C)cc2)c1C | 14.9% |
| Cc1ccc(Cl)cc1NC(=O)C(C)n1nnc2sc(-c3ccccc3)cc2c1=O (configuration not stated) | 15.2% |
| CCOc1ccc(/C=N/NC(=O)c2cc3c(OC)cc(OC)c(OC)c3[nH]2)cc1 | active: 55.7% |
| CCCCOc1ccc(S(=O)(=O)Nc2ccc(-c3ccc(N4CCCCCC4)nn3)cc2)cc1 | 26.6% |
| COc1ccc(Cn2c(SCc3ccc(C(=O)NC4CCCC4)cc3)nc3ccncc32)cc1 | 11.2% |
| CCOC(=O)c1c(C)oc2ncnc(N3CCN(c4ccccc4OC)CC3)c12 | 1.9% |
| O=C(COc1ccc2oc3c(c2c1)CCCC3)Nc1ccc(Br)cc1 | -10.8% |
| COc1ccc(-c2cc(C(C)=O)c(C)n2CCC(=O)NCc2ccccc2OC)cc1 | 14% |
| CCc1ccccc1N(C)C(=O)Cc1c(C(=O)O)c(C)cn1C | -11.2% |
| Brc1cccc(CNCCSc2nnnn2-c2ccccc2)c1 | -13.3% |
| Cc1cc(C)c(NC(=O)C(C)n2nc(-c3ccc(C)c(C)c3)ccc2=O)c(C)c1 (configuration not stated) | 7.59% |
| CCCCNC(=O)N1CCOCCOCCN(C(=O)NCCCC)CCOCCOCC1 | active: 32.3% |
| Cc1cc(C)cc(OCC(=O)NCCc2nc3ccccc3[nH]2)c1 | 7.36% |
| COc1cccc(CC2(CO)CCN(Cc3ccc4cccc(F)c4n3)CC2)c1 | active: 61.6% |
| Cc1ccc(NC(=O)Cc2ccc(-n3c(C)nc4cccnc43)cc2)cc1C | -17.1% |
| Cc1ccccc1NC(=O)CSc1nc(-c2ccccc2C)nc2cc(=O)[nH]n12 | 8.18% |
| COc1ccccc1N(CC(=O)NCCSCc1ccccc1)S(=O)(=O)c1ccc(C)cc1 | -3.1% |
| CCOc1ccc(NC(=O)N2CCN(S(=O)(=O)c3ccc4c(ccn4C)c3)CC2)cc1 | 22.5% |
| COCCNC(=O)Cn1nc(N2CCN(c3ccccc3OC)CC2)ccc1=O | 20% |
